Experimental data published in article PMC7819943, “Rice protein-binding microarrays: a tool to detect cis-acting elements near promoter regions in rice”.
This is one part of the list.

The sequences below were run against T1, OsWOX13 (Oryza sativa, UniProt Q5QMM3 1-267) (assay: protein-binding microarray (RPBM); PBS, 2% BSA, 51.3 ng/ul salmon testes DNA, 50 uM zinc acetate, 200 nM TF, 25 C, 1 h; high values mean tight binding). Conditions: protein: recombinant; tags: N-terminal polyhistidine and DsRed monomer fusion (pET32a); label: CyDye5-dUTP incorporated in the synthesized complementary strand; 3' TTTTT single-stranded linker to array surface; dsDNA, one strand shown.
T1 sequence: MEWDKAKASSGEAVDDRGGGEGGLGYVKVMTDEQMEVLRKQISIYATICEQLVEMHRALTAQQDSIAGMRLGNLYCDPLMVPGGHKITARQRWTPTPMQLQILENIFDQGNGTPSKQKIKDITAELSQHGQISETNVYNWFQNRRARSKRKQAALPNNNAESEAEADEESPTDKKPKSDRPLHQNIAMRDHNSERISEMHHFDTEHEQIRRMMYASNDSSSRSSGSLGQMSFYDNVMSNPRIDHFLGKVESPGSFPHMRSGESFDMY
In short: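 Ni–NTA purification followed expression in E. coli BL21-CodonPlus of transcription factors fused N-terminally to a polyhistidine tag and DsRed. At 200 nM in PBS with 2% BSA, salmon testes DNA and 50 µM zinc acetate, the protein was incubated for 1 h at 25 °C with a custom Agilent array that had been primer-extended with Cy5-dUTP and blocked with 2% BSA. After washing, the array was read on an Axon 4000B scanner. The binding signal is per-feature fluorescence intensity in arbitrary units.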
“GAGTGATTAGAATCCATTTCTGCTTTCAATTCAAATATAGCGGAGTCACCTAGTGCAG” was tested, and the binding signal was 20300 fluorescence intensity (a.u.). “AACACAATGCTGCGTCAATTATACATATCTGTATGTCCATCGGAGTCACCTAGTGCAG” was tested, and the binding signal was 3690 fluorescence intensity (a.u.). For “ACGGCGGCGGATGTGATTGGTGTGTCCAACCACTTGCCCGCGGAGTCACCTAGTGCAG”, the binding signal was 9400 fluorescence intensity (a.u.). “TTATAATCTAGATTAGAGGGACTAGCACCAGTAGTCGGCACGGAGTCACCTAGTGCAG” was tested, and the binding signal was 7440 fluorescence intensity (a.u.). In the case of “CAGTCAAACATATGGAATTGACTATGATGAGACATTTGCACGGAGTCACCTAGTGCAG”, the binding signal is reported as 5380 fluorescence intensity (a.u.). For “TAAAATTACATATGTAATTTAGGGACTTACAATGTAAATGCGGAGTCACCTAGTGCAG”, the binding signal was 26500 fluorescence intensity (a.u.). In the case of “ATATGATTGCCAGAAAAGGGACGAATGAACGAAGAATATACGGAGTCACCTAGTGCAG”, the binding signal is reported as 13400 fluorescence intensity (a.u.). In the case of “CCTATATAAATTATCCGAGTACTAATACGTCGAATAAGGTCGGAGTCACCTAGTGCAG”, the binding signal is reported as 3240 fluorescence intensity (a.u.). With “CACCCAATCACAATCCAACCCACGCCATTGCAACCAAATTCGGAGTCACCTAGTGCAG” the binding signal was 4130 fluorescence intensity (a.u.). With “TAATTAGATTTAATAAATTTGTTTTGCAGTTTACAGACAACGGAGTCACCTAGTGCAG” the binding signal was 22700 fluorescence intensity (a.u.). In the case of “ACGGTGTGATTAATTACGTCGCGATCATGTTGTGCTAATCCGGAGTCACCTAGTGCAG”, the binding signal is reported as 32500 fluorescence intensity (a.u.). For “CAAAAGTGTTCAATCAAATATGAAAATGAGTATAATGCAACGGAGTCACCTAGTGCAG”, the binding signal was 6990 fluorescence intensity (a.u.). “AATGCAATCAAAGAGACAATTAGATTGATCATTTATGTGTCGGAGTCACCTAGTGCAG” was tested, and the binding signal was 41000 fluorescence intensity (a.u.). In the case of “ACTAAGTGCGTGATTGTTTCAGATTTGTTTGGGTTGCGGTCGGAGTCACCTAGTGCAG”, the binding signal is reported as 19700 fluorescence intensity (a.u.). “GCTAATTAAATAACCTACCAGCTTATCACTACAGCTACAACGGAGTCACCTAGTGCAG” was tested, and the binding signal was 23300 fluorescence intensity (a.u.). “AGCTCATCTGATTTGCATTTCAAGTCCAAAATTCCTTACTCGGAGTCACCTAGTGCAG” was tested, and the binding signal was 5680 fluorescence intensity (a.u.). In the case of “CGTTTCTGATTTGATTCTTCCAAATTTTGGGTTCCTGATTCGGAGTCACCTAGTGCAG”, the binding signal is reported as 24800 fluorescence intensity (a.u.). For “TTAAAAGAAAACTCACATGATGATTTGCTTTAATTTAGTACGGAGTCACCTAGTGCAG”, the binding signal was 5520 fluorescence intensity (a.u.). In the case of “TATATATATATATATATATGAATATGGGCAATACTAGAAACGGAGTCACCTAGTGCAG”, the binding signal is reported as 6640 fluorescence intensity (a.u.). With “ATGTAATTCTTAAAGTTAAATTAATATTAGTAGGATTGCTCGGAGTCACCTAGTGCAG” the binding signal was 4410 fluorescence intensity (a.u.). With “AGTAATTGCCTTTTGAATTAACTAACCAGGTGAATTTCCCCGGAGTCACCTAGTGCAG” the binding signal was 39400 fluorescence intensity (a.u.). “GTGATACATTGGTAAATTACCCCGTTTAAAATGAAAACATCGGAGTCACCTAGTGCAG” was tested, and the binding signal was 5260 fluorescence intensity (a.u.). For “TTCAATTTATGCACAATTACAAATTGTTTTCTTTAAGTTTCGGAGTCACCTAGTGCAG”, the binding signal was 7680 fluorescence intensity (a.u.). In the case of “CTACTAATCACACCTCATCTGCGAAATATGAGATCCTACGCGGAGTCACCTAGTGCAG”, the binding signal is reported as 11100 fluorescence intensity (a.u.). For “ATATATACATTACTACATATAATTGTTTCTGGGAAGTAGCCGGAGTCACCTAGTGCAG”, the binding signal was 5370 fluorescence intensity (a.u.). With “CTGCTAATTTTATCGTCAGATCAAACTTAAAGCAAAGCAACGGAGTCACCTAGTGCAG” the binding signal was 6360 fluorescence intensity (a.u.). With “ATTAATGTTAATGAATATCAATATGAATATGGGAAATGCTCGGAGTCACCTAGTGCAG” the binding signal was 5480 fluorescence intensity (a.u.). In the case of “AAGCATGATTATTCAATTCGTCTTATGCAAGCAAAAGTGTCGGAGTCACCTAGTGCAG”, the binding signal is reported as 12600 fluorescence intensity (a.u.). “TGGCGGATTGATCTGGAGGTGGGCTTGTTGGGGTTGCTGTCGGAGTCACCTAGTGCAG” was tested, and the binding signal was 14400 fluorescence intensity (a.u.). For “ATGATAGATTATTATAATCTATAAGCCAGATTAGTATAATCGGAGTCACCTAGTGCAG”, the binding signal was 44100 fluorescence intensity (a.u.). For “AGTGCTTGACTGCTTGGTTAGGAAGGAAATTAAAGTTGGGCGGAGTCACCTAGTGCAG”, the binding signal was 4730 fluorescence intensity (a.u.). “TTTAATGGGAATATGAAACCGTGGCTTGATGTTGCGTTGACGGAGTCACCTAGTGCAG” was tested, and the binding signal was 3890 fluorescence intensity (a.u.). In the case of “AATAAATTTCAGACCAAAATTGATGGAATGCAGACAATATCGGAGTCACCTAGTGCAG”, the binding signal is reported as 14300 fluorescence intensity (a.u.). “ATAATTAGATGTGATATATTATAGTACAACGAATCTTGACCGGAGTCACCTAGTGCAG” was tested, and the binding signal was 40000 fluorescence intensity (a.u.). In the case of “AACGTATGAATGTCATTAATTAAGGGTGTGTGGTGAAATTCGGAGTCACCTAGTGCAG”, the binding signal is reported as 4770 fluorescence intensity (a.u.). “TGCTAAACTTTATCAAGGTTTTAATTTTGATAAAGATGGACGGAGTCACCTAGTGCAG” was tested, and the binding signal was 4050 fluorescence intensity (a.u.). “TTCTTGTGAGATGCCAATCAATAACAAAATCGCAGTACAACGGAGTCACCTAGTGCAG” was tested, and the binding signal was 7600 fluorescence intensity (a.u.). “AGTAATTAAGGAGTCAATAATAAATCATACTATAGAAGTACGGAGTCACCTAGTGCAG” was tested, and the binding signal was 6530 fluorescence intensity (a.u.). “GCCCGGTGTTGATTGTGAGTGGCTCGGTGTTCGCCATCTCCGGAGTCACCTAGTGCAG” was tested, and the binding signal was 10100 fluorescence intensity (a.u.). “TCCTGATTGTTCACAATTGTGCTAGTTCAAACAAGGCAAACGGAGTCACCTAGTGCAG” was tested, and the binding signal was 24800 fluorescence intensity (a.u.). With “TAGTTAATTTCTTAAGTACTACTTAATACAAAATTCCACTCGGAGTCACCTAGTGCAG” the binding signal was 6340 fluorescence intensity (a.u.). For “TCTATAATTTAATAATTTATTAAATTTTAGAGAATTAAAACGGAGTCACCTAGTGCAG”, the binding signal was 12000 fluorescence intensity (a.u.).
